In the antibiotic and cytotoxicity screens of Wong et al. (2023):
Some of the results follow.

test system: HSkMC (human skeletal muscle cells); test: cytotoxicity call (relative viability < 0.9); conditions: 10 µM

Structure (SMILES) | cytotoxicity call
CC(O)(CS(=O)(=O)c1ccc(F)cc1)C(=O)Nc1ccc(C#N)c(C(F)(F)F)c1 (stereo not drawn) | inactive
Cc1nc(N2CCN(C)CC2)ccc1N | inactive
Cc1ccc(N2CCO[C@@H]3CNCC[C@H]3C2)nn1 | inactive
CCCCS(=O)(=O)N1C[C@H]2CNC[C@@H]2C1 | inactive
CNC(=O)Oc1ccc2c(c1)C1(C)CCN(C)C1N2C.O=S(=O)(O)O (stereo not drawn) | inactive
COCC(=O)N1[C@@H]2Cn3c(ccc(C4=CCCC4)c3=O)[C@H]1[C@@H](C(=O)OC)[C@@H]2CO | inactive
CC(=O)NC1CCSC1=O (stereo not drawn) | inactive
Cc1cc2c(C(C)C)c(O)c(O)c(C=O)c2c(O)c1-c1c(C)cc2c(C(C)C)c(O)c(O)c(C=O)c2c1O | active
Cn1cc(N2C[C@@H]3CN(CCO)C[C@@H]3C2=O)cn1 | inactive
N#C[C@H](O[C@@H]1O[C@H](CO[C@@H]2O[C@H](CO)[C@@H](O)[C@H](O)[C@H]2O)[C@@H](O)[C@H](O)[C@H]1O)c1ccccc1 | inactive
CCN1C[C@]2(COC)CC[C@H](O)[C@@]34[C@@H]2[C@@H](OC)[C@@H]([C@@H]13)[C@@]1(OC(C)=O)C[C@H](OC)[C@H]2C[C@H]4[C@@H]1[C@@H]2OC(C)=O | inactive
Cc1cc(OC(=O)N(C)C)cc(=O)n1C | inactive
O=[N+]([O-])c1cc([As](=O)(O)O)ccc1O | inactive
NC1CC1c1ccccc1.O=S(=O)(O)O (stereo not drawn) | inactive
COC(=O)C[C@@H]1CC[C@H]2NC[C@@H](O)COC[C@@H]2O1 | inactive
COC(=O)C1=COC(C)C2CN3CCC4(C(=O)Nc5ccccc54)C3CC12 (stereo not drawn) | inactive
CC(C)C12OC1C1OC13C1(C)CCC4=C(COC4=O)C1CC1OC13C2O (stereo not drawn) | inactive
O=[As]O[As]=O (stereo not drawn) | inactive
CN(C)C(=O)C(CCN1CCC(O)(c2ccc(Cl)cc2)CC1)(c1ccccc1)c1ccccc1.Cl | inactive
NC[C@@H](CC(=O)O)c1ccc(Cl)cc1 | inactive

Structure (SMILES) | cytotoxicity call
CC(C(O)c1ccccc1)N(C)C (stereo not drawn) | inactive
O=C1C[C@@H](CO)CN1 | inactive
CC(=O)OC1C2CCC3C(C)(O)C4CC(O)C(C)(C)C4(O)C(O)CC13CC2(C)O (stereo not drawn) | inactive
Cc1ccc(-n2nccn2)c(C(=O)N2CCN(c3nc4cc(Cl)ccc4o3)CCC2C)c1 (stereo not drawn) | inactive
CN1CCC2(C)c3cc(O)ccc3N(C)C12.O=C(O)C=CC(=O)O (stereo not drawn) | inactive
[N-]=[N+]=NCc1ccccc1C[C@@]1(C(=O)NCCN2CCOCC2)N=C(c2ccc(OCCCO)cc2)O[C@@H]1c1ccccc1N=[N+]=[N-] | inactive
CN(CC[C@H](N)CC(=O)N[C@H]1C=C[C@@H](n2ccc(N)nc2=O)O[C@@H]1C(=O)O)C(=N)N | inactive
NCCc1ccccn1 | inactive
C[C@]12CC[C@](C)(O1)[C@H](C(=O)O)[C@@H]2C(=O)O | inactive
COC(=O)C[C@H]1CC[C@@H]2NC[C@@H](O)COC[C@H]2O1 | inactive
C[N+]12CCC(CC1)C(OC(=O)C(O)(c1ccccc1)c1ccccc1)C2.[Br-] (stereo not drawn) | inactive
O=[N+]([O-])C(Br)(CO)CO | active
CC12CC(=O)C3C(CCC4=CC(=O)CCC43C)C1CCC2=O (stereo not drawn) | inactive
NCc1cccnc1 | inactive
CC(C)(C)[C@H]1CC[C@@]2(CC1)C[C@@H](C[Si](C)(C)C)OO2 | inactive
C=CCc1ccc(OC)cc1 | inactive
Cc1cccc([C@H](CN)N(C)C)c1 | inactive
Cn1cc([C@@]23C[C@]2(C)COC3=O)cn1 | inactive
CCCCOC(=O)C1=CC(=O)CC(C)(C)O1 | inactive

test system: HepG2; test: cytotoxicity call (relative viability < 0.9); conditions: 10 µM

Structure (SMILES) | cytotoxicity call
CC(O)(CS(=O)(=O)c1ccc(F)cc1)C(=O)Nc1ccc(C#N)c(C(F)(F)F)c1 (stereo not drawn) | inactive
Cc1nc(N2CCN(C)CC2)ccc1N | inactive
Cc1ccc(N2CCO[C@@H]3CNCC[C@H]3C2)nn1 | inactive
CCCCS(=O)(=O)N1C[C@H]2CNC[C@@H]2C1 | inactive
CNC(=O)Oc1ccc2c(c1)C1(C)CCN(C)C1N2C.O=S(=O)(O)O (stereo not drawn) | active
COCC(=O)N1[C@@H]2Cn3c(ccc(C4=CCCC4)c3=O)[C@H]1[C@@H](C(=O)OC)[C@@H]2CO | inactive
CC(=O)NC1CCSC1=O (stereo not drawn) | inactive
Cc1cc2c(C(C)C)c(O)c(O)c(C=O)c2c(O)c1-c1c(C)cc2c(C(C)C)c(O)c(O)c(C=O)c2c1O | active
Cn1cc(N2C[C@@H]3CN(CCO)C[C@@H]3C2=O)cn1 | inactive
N#C[C@H](O[C@@H]1O[C@H](CO[C@@H]2O[C@H](CO)[C@@H](O)[C@H](O)[C@H]2O)[C@@H](O)[C@H](O)[C@H]1O)c1ccccc1 | inactive
CCN1C[C@]2(COC)CC[C@H](O)[C@@]34[C@@H]2[C@@H](OC)[C@@H]([C@@H]13)[C@@]1(OC(C)=O)C[C@H](OC)[C@H]2C[C@H]4[C@@H]1[C@@H]2OC(C)=O | inactive
Cc1cc(OC(=O)N(C)C)cc(=O)n1C | inactive
O=[N+]([O-])c1cc([As](=O)(O)O)ccc1O | inactive
NC1CC1c1ccccc1.O=S(=O)(O)O (stereo not drawn) | inactive
COC(=O)C[C@@H]1CC[C@H]2NC[C@@H](O)COC[C@@H]2O1 | inactive
COC(=O)C1=COC(C)C2CN3CCC4(C(=O)Nc5ccccc54)C3CC12 (stereo not drawn) | inactive
CC(C)C12OC1C1OC13C1(C)CCC4=C(COC4=O)C1CC1OC13C2O (stereo not drawn) | active
O=[As]O[As]=O (stereo not drawn) | active
CN(C)C(=O)C(CCN1CCC(O)(c2ccc(Cl)cc2)CC1)(c1ccccc1)c1ccccc1.Cl | active
NC[C@@H](CC(=O)O)c1ccc(Cl)cc1 | inactive

Structure (SMILES) | cytotoxicity call
CC(C(O)c1ccccc1)N(C)C (stereo not drawn) | inactive
O=C1C[C@@H](CO)CN1 | inactive
CC(=O)OC1C2CCC3C(C)(O)C4CC(O)C(C)(C)C4(O)C(O)CC13CC2(C)O (stereo not drawn) | inactive
Cc1ccc(-n2nccn2)c(C(=O)N2CCN(c3nc4cc(Cl)ccc4o3)CCC2C)c1 (stereo not drawn) | inactive
CN1CCC2(C)c3cc(O)ccc3N(C)C12.O=C(O)C=CC(=O)O (stereo not drawn) | active
[N-]=[N+]=NCc1ccccc1C[C@@]1(C(=O)NCCN2CCOCC2)N=C(c2ccc(OCCCO)cc2)O[C@@H]1c1ccccc1N=[N+]=[N-] | active
CN(CC[C@H](N)CC(=O)N[C@H]1C=C[C@@H](n2ccc(N)nc2=O)O[C@@H]1C(=O)O)C(=N)N | inactive
NCCc1ccccn1 | inactive
C[C@]12CC[C@](C)(O1)[C@H](C(=O)O)[C@@H]2C(=O)O | inactive
COC(=O)C[C@H]1CC[C@@H]2NC[C@@H](O)COC[C@H]2O1 | inactive
C[N+]12CCC(CC1)C(OC(=O)C(O)(c1ccccc1)c1ccccc1)C2.[Br-] (stereo not drawn) | inactive
O=[N+]([O-])C(Br)(CO)CO | active
CC12CC(=O)C3C(CCC4=CC(=O)CCC43C)C1CCC2=O (stereo not drawn) | inactive
NCc1cccnc1 | inactive
CC(C)(C)[C@H]1CC[C@@]2(CC1)C[C@@H](C[Si](C)(C)C)OO2 | inactive
C=CCc1ccc(OC)cc1 | active
Cc1cccc([C@H](CN)N(C)C)c1 | inactive
Cn1cc([C@@]23C[C@]2(C)COC3=O)cn1 | inactive
CCCCOC(=O)C1=CC(=O)CC(C)(C)O1 | active
